# Like-named read-outs stand apart in the source and are kept apart here.
# Experiments:
# [1] = tested on: L-type and T-type calcium channels (GH3 cells)
# [2] = tested on: T-type calcium channels (GH-3 cells); details: read-out: apparent IC50 for block of remaining transient increase in internal calcium
# [3] = biological target: class E voltage-gated calcium channel (human alpha-1E subunit) stably expressed in 192C cells (HEK 293) (human) (UniProt Q15878); assay: cell-based or functional assay
# Chain of UniProt Q15878 (Q15878 whole entry): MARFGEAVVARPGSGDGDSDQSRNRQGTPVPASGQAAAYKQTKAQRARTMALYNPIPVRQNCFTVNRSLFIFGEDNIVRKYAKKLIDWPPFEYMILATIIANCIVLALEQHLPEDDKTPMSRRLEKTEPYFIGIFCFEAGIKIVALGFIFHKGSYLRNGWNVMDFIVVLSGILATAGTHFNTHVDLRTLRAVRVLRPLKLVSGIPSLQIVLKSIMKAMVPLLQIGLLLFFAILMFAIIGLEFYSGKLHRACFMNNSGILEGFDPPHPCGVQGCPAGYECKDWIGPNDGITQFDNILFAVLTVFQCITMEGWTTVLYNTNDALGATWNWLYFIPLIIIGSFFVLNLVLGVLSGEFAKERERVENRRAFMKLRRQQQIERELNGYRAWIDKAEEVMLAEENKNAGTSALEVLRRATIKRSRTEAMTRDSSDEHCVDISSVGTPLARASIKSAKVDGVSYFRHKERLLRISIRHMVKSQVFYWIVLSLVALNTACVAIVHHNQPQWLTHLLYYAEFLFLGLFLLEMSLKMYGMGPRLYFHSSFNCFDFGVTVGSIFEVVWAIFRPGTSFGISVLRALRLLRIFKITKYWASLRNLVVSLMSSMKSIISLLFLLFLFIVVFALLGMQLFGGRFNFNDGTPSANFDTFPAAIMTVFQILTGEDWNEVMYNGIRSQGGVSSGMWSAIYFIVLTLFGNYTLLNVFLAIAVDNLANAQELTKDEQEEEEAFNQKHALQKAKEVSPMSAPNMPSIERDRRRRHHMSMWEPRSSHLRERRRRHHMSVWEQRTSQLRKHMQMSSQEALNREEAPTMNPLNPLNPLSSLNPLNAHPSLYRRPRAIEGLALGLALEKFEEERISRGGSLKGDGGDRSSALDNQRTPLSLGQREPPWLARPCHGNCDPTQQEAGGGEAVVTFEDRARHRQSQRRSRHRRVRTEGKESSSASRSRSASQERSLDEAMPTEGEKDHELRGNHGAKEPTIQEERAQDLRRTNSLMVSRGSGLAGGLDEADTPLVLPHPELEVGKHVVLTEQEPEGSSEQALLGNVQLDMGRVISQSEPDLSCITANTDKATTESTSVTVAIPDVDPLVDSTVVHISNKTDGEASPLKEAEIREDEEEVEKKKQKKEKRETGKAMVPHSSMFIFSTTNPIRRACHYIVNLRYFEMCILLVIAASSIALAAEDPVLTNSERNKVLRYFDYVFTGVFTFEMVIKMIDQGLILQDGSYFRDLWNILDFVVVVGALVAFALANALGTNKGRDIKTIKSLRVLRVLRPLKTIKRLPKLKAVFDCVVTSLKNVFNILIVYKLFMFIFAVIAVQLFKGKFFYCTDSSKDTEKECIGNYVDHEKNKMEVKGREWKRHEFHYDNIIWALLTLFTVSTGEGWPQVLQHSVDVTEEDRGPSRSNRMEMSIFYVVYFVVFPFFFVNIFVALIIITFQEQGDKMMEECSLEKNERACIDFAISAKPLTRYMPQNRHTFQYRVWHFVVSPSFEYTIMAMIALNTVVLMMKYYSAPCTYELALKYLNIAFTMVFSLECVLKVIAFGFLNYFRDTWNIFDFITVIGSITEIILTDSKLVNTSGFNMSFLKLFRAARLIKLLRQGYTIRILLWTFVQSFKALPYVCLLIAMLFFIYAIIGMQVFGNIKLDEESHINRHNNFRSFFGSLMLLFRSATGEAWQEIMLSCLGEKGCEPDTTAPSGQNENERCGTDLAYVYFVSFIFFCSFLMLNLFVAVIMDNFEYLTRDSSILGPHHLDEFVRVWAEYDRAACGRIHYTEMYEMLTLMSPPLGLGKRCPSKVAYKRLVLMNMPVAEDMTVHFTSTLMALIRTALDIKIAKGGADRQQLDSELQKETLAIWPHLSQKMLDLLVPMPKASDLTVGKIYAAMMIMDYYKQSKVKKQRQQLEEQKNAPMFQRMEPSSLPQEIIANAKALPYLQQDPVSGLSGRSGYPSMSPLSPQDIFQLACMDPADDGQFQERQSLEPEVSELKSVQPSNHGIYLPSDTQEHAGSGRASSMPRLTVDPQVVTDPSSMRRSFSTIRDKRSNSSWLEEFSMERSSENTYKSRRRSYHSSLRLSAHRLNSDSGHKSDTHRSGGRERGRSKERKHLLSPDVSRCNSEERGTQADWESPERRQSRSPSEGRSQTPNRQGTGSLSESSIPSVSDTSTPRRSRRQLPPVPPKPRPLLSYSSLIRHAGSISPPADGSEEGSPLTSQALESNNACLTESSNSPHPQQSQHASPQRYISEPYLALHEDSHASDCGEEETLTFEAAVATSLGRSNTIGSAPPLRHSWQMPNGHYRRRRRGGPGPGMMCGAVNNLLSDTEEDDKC
molecule,measurement,setting,value
CCOC(=O)C1=C(C)NC(C)=C(C(=O)OC)C1c1cccc([N+](=O)[O-])c1 (centres unmarked) [nitrendipine],IC50,[1]; read-out: apparent IC50 for block of sustained component of depolarization evoked increase in internal calcium,400 nM
CCOC(=O)C1=C(C)NC(C)=C(C(=O)OC)C1c1cccc(Cl)c1Cl (centres unmarked) [felodipine],IC50,[2],600 nM
"SNX-629, synthetic peptide corresponding to HG-1 (7-41)",inhibition of calcium uptake; concentration relative to HG-1 in the same assay (times the concentration of HG-1),[3],< 20
HG-1 peptide,"IC50, block of peak inward calcium current, whole cell patch clamp of 192C cells",[3],25 nM
omega-Aga-IIIA (from UniProt P33034 1-76) (peptide),"IC50, block of peak inward calcium current, whole cell patch clamp of 192C cells",[3],4 nM
same,"apparent IC50, depolarization-evoked calcium influx, INDO-1 fluorescence ratio, 192C cells",[3],5 nM
Aga-IIIA (peptide) peptide: SCIDIGGDCDGEKDDCQCCRRNGYCSCYSLFGYLKSGCKCVVGTSAEFQGICRRKARQCYNSDPDKCESHNKPKRR,block of depolarization evoked signal,[1]; GH3 cells,potent but partial block
same,IC50,"[1]; read-out: apparent IC50 for block of depolarization evoked signal, GH3 cells, evaluated at 60 seconds after depolarization, partial block",1.5 nM
